Test results taken from PubChem BioAssay AID938 (National Center for Advancing Translational Sciences (NCATS), 2007).
Hit rate of the full screen: of about 73,000 compounds, about 1,800 (2.5%) were called active. Inconclusive means that the source gave no clear call. Such entries were picked first, then a sample of the others. Calls come from the whole dose curve; as a rule, active = well fitted activation curve with a large enough effect; inconclusive = small, poorly fitted or top-dose-only effect; inactive = no such curve, though single readings can be large or run the other way. No potency is given beside an inconclusive call; the fits are too rough.

Assay: qHTS Assay for Agonists of the Thyroid Stimulating Hormone Receptor: Activators of Intracellular cAMP Concentrations in Parental HEK 293; note: nearly all actives have a fitted effect of over 55% in size; for activation: % of control where 0% means no effect
Details: parental HEK293 CNG cAMP sensor, membrane potential fluorescence; activation: at 57.1 µM (top of the series) unless noted
Procedure, shortened: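 Counterscreen for endogenous-receptor signalling: CNG-channel HEK 293 cells report cAMP rise by membrane depolarization. After 60 min dye equilibration with 100 uM RO 20-1724, compounds incubated 30 min before bottom-read fluorescence at 590 nm.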
Potency is the fitted concentration of half-maximal effect; tags give direction and shape of the fitted curve.

| SMILES | Potency | activation |
| --- | --- | --- |
| c1coc(-c2nc3c4c5c(sc4ncn3n2)CCCC5)c1 | inconclusive [activator, single point] | – |
| COc1ccc(N2CCN(c3nc(NCCc4ccc(OC)c(OC)c4)nc(OC)n3)CC2)cc1 | inconclusive [activator, single point] | – |
| CCOc1ccccc1CNC(=O)C1CCCN(c2nc3ccccc3o2)C1 (centres undefined) | inconclusive [activator, partial curve] | – |
| Cc1cc(NC(=O)CSc2nc(-c3ccco3)cc(C(F)(F)F)n2)no1 | inactive | – |
| Clc1ccc2nc(N3CCCCC3)[nH]c2c1 | inconclusive [activator, partial curve] | – |
| Cc1cc(Cl)ccc1Nc1sc(C(=O)c2cc3cc(Cl)ccc3o2)c(N)c1C#N | – | inactive: 12.8% [at 11.4 µM] |
| CCOc1ccccc1C(=O)Nc1ccc2nc(N3CCN(c4ncccn4)CC3)cc(C)c2c1 | inactive | – |
| CC1Cc2ccccc2N1C(=O)CSc1nc2ccccc2o1 (centres undefined) | inconclusive [activator, single point] | – |
| COc1ccc(-c2nc3cnc(OCc4ccccc4)nc3n(CCC#N)c2=O)cc1 | inconclusive [activator, single point] | – |
| O=C(NCc1ccco1)c1nn(-c2ccccc2)c(=O)c2ccccc12 | inconclusive [activator, partial curve] | – |
| CN(C)c1ncc2nc(-c3ccc(Cl)cc3)c(=O)n(-c3ccccc3)c2n1 | inactive | – |
| COc1cc(OC)cc(C(=O)Nc2ccc(-c3nc4ccccc4o3)cc2)c1 | inconclusive [activator, partial curve] | – |
| CCOCN(C(=O)Cn1c(CO)nc2ccccc21)c1c(C)cccc1CC | inconclusive [activator, partial curve] | – |
| COc1ccccc1-c1cc(C(F)(F)F)nc(NCc2ccco2)n1 | inconclusive [activator, partial curve] | – |
| Cc1cc(C(=O)NC2CCCc3ccccc32)no1 (centres undefined) | inconclusive [activator, single point] | – |
| CN(C)C(=O)c1ccc(-c2ccc3ncnc(Nc4ccccc4)c3c2)cc1 | inactive | – |
| CCOCCCn1c(=S)[nH]c2cc(C(=O)NCCOC)ccc2c1=O | inconclusive [activator, single point] | – |
| COc1ccc(C)cc1NC(=O)CN1CCN(S(=O)(=O)c2ccc(Cl)cc2)CC1 | inconclusive [activator, partial curve] | – |
| CC1CN(S(=O)(=O)c2ccc(C(=O)Nc3sc4c(c3C(N)=O)CCN(C)C4)cc2)CC(C)O1 (centres undefined) | inconclusive [activator, single point] | – |
| CC1CCN(c2nc3ccc(C(=O)O)cc3s2)CC1 | inactive | – |
| Cc1nc(NC(=O)c2ccco2)sc1C(=O)Nc1ccc(Br)cc1 | inconclusive [activator, partial curve] | – |
| CCn1c(SCC(=O)Nc2nc3c(s2)CCCC3)nnc1-c1ccccc1 | inconclusive [activator, single point] | – |
| Cn1cc(C(=O)NC2CCCCCC2)c(=O)c2cc(S(=O)(=O)N3CCCC3)ccc21 | inconclusive [activator, single point] | – |

| SMILES | Potency | activation |
| --- | --- | --- |
| CCCN(CCC)C(=O)SCC | inconclusive [activator, partial curve, poor fit] | – |
| COCCNC(=O)Cn1cnc2ccc(S(=O)(=O)N3CCC(C)CC3)cc2c1=O | inconclusive [activator, partial curve] | – |
| COc1ccc(NC(=O)N2CC[C@@]3(CCCNC3)C2)cc1 | inactive | – |
| O=C(Nc1cccc(-c2nc3ncccc3o2)c1)c1cc2ccccc2o1 | inconclusive [activator, single point] | – |
| Cc1cccc(CNc2ncncc2-c2ccccc2C)c1 | inconclusive [activator, partial curve] | – |
| O=C1NC(=O)C(CC(=O)N(Cc2ccco2)C2(C(=O)NC3CCCCC3)CCCCC2)N1 (centres undefined) | inconclusive [activator, partial curve] | – |
| CCCC/C=C/C(NC(=O)c1cccs1)c1ccccc1 (centres undefined) | inconclusive [activator, partial curve] | – |
| COC(=O)c1c(NC(=O)Cc2cccs2)sc2c1CCCC2 | inconclusive [activator, partial curve] | – |
| COc1cccc(-n2nnc3c(=O)n(CC(=O)OCc4ccccc4)cnc32)c1 | inconclusive [activator, partial curve] | – |
| COc1cccc(-n2ccnc2SCC(=O)Nc2cc(OC)ccc2OC)c1 | inconclusive [activator, single point] | – |
| CCCc1cc(=O)[nH]c(SCC(=O)Nc2cc3c(cc2C(C)=O)OCO3)n1 | inconclusive [activator, partial curve] | – |
| CCCN1C2=NCCN2c2cc(C)c(C)cc21 | inconclusive [activator, partial curve] | – |
| COc1ccc(-n2nnnc2-c2cccc(OC)c2)cc1 | inconclusive [activator, single point] | – |
| CCCn1c(=N)n(CC(O)COc2cccc(C)c2)c2ccccc21 (centres undefined) | active: 15.8 µM | – |
| CCc1ccccc1N1CCN(S(=O)(=O)c2ccc(F)c(C)c2)CC1 | inconclusive [activator, partial curve] | – |
| CCn1c(COc2ccccc2C)nnc1SCC(=O)CC(=O)Nc1ccccc1 | inactive | – |
| C=CC[C@H](N)C(=O)O | inconclusive [activator, single point] | – |
| Cc1ccc(CC2CC(=O)N(CCc3ccc4c(c3)OCO4)C2=O)cc1 (centres undefined) | inconclusive [activator, single point] | – |
| Cc1ccnc(NS(=O)(=O)c2ccc(NC(=O)C3CCCNC3=O)cc2)n1 (centres undefined) | inconclusive [activator, single point] | – |
| O=C(CCS(=O)(=O)c1ccc(Br)cc1)N1CCN(c2ccccc2)CC1 | inconclusive [activator, single point] | – |
| CCOc1ccc(C(=O)Nc2ccc(N3CCN(C)CC3)cc2)cc1Br | inactive | – |
| CC(C)C(=O)Nc1c(C(=O)c2ccc(F)cc2)oc2ccccc12 | inconclusive [activator, partial curve] | – |
| CCOC(=O)c1cccc(NC(=O)CSc2nnc(C)n2Cc2ccccc2)c1 | inactive | – |

| SMILES | Potency | activation |
| --- | --- | --- |
| O=C(OCC(=O)N(C1CCCCC1)C1CCCCC1)c1cnccn1 | inconclusive [activator, single point] | – |
| Cc1cc(C)nc(N2CCC(CNC(=O)CCc3ccccc3)CC2)n1 | inconclusive [activator, single point] | – |
| O=C(O)c1ccccc1Nc1ccccc1 | inconclusive [activator, single point] | – |
| CCOC(=O)c1[nH]c(COC(=O)CCCOc2ccccc2)c(C(=O)OCC)c1C | inconclusive [activator, single point] | – |
| NC(=O)c1c(NC(=O)C2CCCO2)sc2c1CCC2 (centres undefined) | inconclusive [activator, single point] | – |
| CCOc1ccccc1NC(=O)CCSc1nc2n[nH]c(C)c2c(=N)n1-c1ccccc1Cl | inactive | – |
| CCN(C(=O)c1cnc(N2CCN(c3ncccn3)CC2)c2ccccc12)c1cccc(Cl)c1 | inconclusive [activator, single point] | – |
| CCCCN1C(=O)C2ON(c3ccccc3C)C(c3ccco3)C2C1=O (centres undefined) | inconclusive [activator, partial curve] | – |
| N#CC1=C(N)SC(N)=C(C#N)C1c1ccnc2ccccc12 | inconclusive [activator, full curve] | – |
| Nc1ccc([N+](=O)[O-])c(N)c1 | inactive | – |
| Cc1ccc(N(CC(=O)NCc2ccc3c(c2)OCO3)S(=O)(=O)c2c(C)noc2C)cc1 | inconclusive [activator, single point] | – |
| O=C1C2C3C=CC(C3=C3CCCCC3)C2C(=O)N1Cc1ccccc1 (centres undefined) | inactive | – |
| O=C(O)c1ccccc1Cl | inactive | – |
| O=C(O)[C@@H]1[C@@H]2C[C@H]3c4[nH]c5ccccc5c4CCN3C[C@@H]2CC[C@@H]1O | inconclusive [activator, single point] | – |
| COC(=O)C1(CO)NC(c2cccs2)C2C(=O)N(c3ccccc3)C(=O)C21 (centres undefined) | inconclusive [activator, single point] | – |
| COC(=O)C(CCSC)NC(=O)Cn1ncc2c(=O)oc3ccc(C)cc3c21 (centres undefined) | inconclusive [activator, partial curve, poor fit] | – |
| Cn1cnnc1SCC(=O)Nc1sc2c(c1C(N)=O)CCC2 | inactive | – |
| O=C(Oc1ccccc1)N1CCC2(CC1)CN(c1ccncc1)C2 | inactive | – |
| COc1cccc(-c2csc3nnc(SCC(=O)NCc4cccs4)n23)c1 | inconclusive [activator, single point] | – |
| COCCn1c(-c2ccco2)nc2nc3ccccc3nc21 | inactive | – |
| CC(C)[C@@H](CC(=O)N[C@@H]1CCCC[C@H]1C(=O)N[C@H](CC(=O)N[C@@H](CCC(=O)O)CC(=O)O)Cc1ccccc1)NC(=O)C[C@H](CO)NC(=O)[C@@H]1CCCC[C@H]1N | inactive | – |
| COc1ccc2[nH]c(I)c(CCNC(C)=O)c2c1 | inconclusive [activator, single point] | – |
| O=C(Nc1nc2c(Cl)cccc2s1)c1ccc(Br)o1 | inconclusive [activator, single point] | – |
